Laboratory results reported in the supplement of paper PMC10126150.
Sequences with one replicate were seen in a single cluster, so their values are uncertain.

System: ATP
Test: switch fluorescence ratio, 500 uM ATP over buffer (Cy3 cluster intensity, sum of 5 cycles each) (fold (ratio)); higher = stronger signal-on switching upon ATP binding; sequences stand for … in TCGTCGGCAGCGTCAGATGTGTATAAGAGACAGTTTTTTTTTTTTTTTTTTTTTTTTT…TC
Conditions: aptamer strand: ATP DNA aptamer (quencher-CACCTGGGGGAGTATTGCGGAGGAAGG + anchor), 100 nM annealed; ATP concentration: 500 uM; one replicate
In short: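 Imaging in selection buffer was followed by imaging after 15 min with 500 uM ATP at 22 °C, for Cy3-labelled switching-strand clusters annealed to 100 nM quencher-labelled ATP aptamer on a modified Illumina MiSeq flow-cell. Five of these buffer/ATP cycles ran, separated by NaOH stripping and re-annealing. The fluorescence ratio per cluster is summed target-cycle over summed buffer-cycle Cy3 intensity, averaged per switch-domain sequence; clusters outside 100-1000 RFU were removed.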
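Further: ATP exposure 15 min at 22 °C before imaging.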

Sequence	switch fluorescence ratio
TGTTGCATTT	0.994
CGCGCGCTCA	1.04
GCTCTTTTGT	0.973
CAAGCAAAA	1.14
CTCGTATTCC	0.989
GAGAGTGGCT	0.991
GATTGTTGAA	1.01
AAAACTGGT	1.09
GCAACTAGCA	1.07
TGGGCTTTGT	0.991
GACAGTTTCG	1
TTAAGACGC	1.04
CTAATTAAGC	1.02
TCGCAACGCT	1.2
GCTGTTAGCG	0.988
AAGCTGGCAT	0.967
CTGTATGCAT	1.06
CCGGATTTC	1.01
CTGGTGGTCT	1.03
TCGGGGCTAA	1.06
GCTTAGGAGC	0.993
AAACTACCCG	0.978
TCTGTTACC	1.06

Sequence	switch fluorescence ratio
TTCGCTTTAT	1.11
TGTATCTG	0.991
GGGTTCAACA	0.975
CCTCGTCGTA	0.934
ATTCGTTACA	1.04
ATGATCATTG	0.974
AACTATTACC	1.07
CTTTTAATTC	0.998
GGCTTTGATT	0.992
ATCGTTATGT	0.966
CACGAATAAA	1.05
AATCTTTGG	1.03
GCAGACC	1.05
TTAGCGCGTT	0.999
GCCGGCGGAC	1.01
TGCTATTACG	1.04
AAAACATCAT	1.05
ATTCTGCGGC	1.1
TGAGCCGGGG	1.01
GTGCTCATTG	1
AGAATCAGCT	0.992
CTTGTTTCAT	0.999
TCGGTTTTCA	1.03

Sequence	switch fluorescence ratio
CTTAAGGCGG	0.977
AGATACAGGC	1
CCGGGCATAT	5.52
ATCTTTTGCG	1.07
TTTACTGCTC	0.983
CAACATATCG	0.985
ACCTGCCGTT	1.01
TTGCTCTGTC	0.993
AATCTGTTAC	1.03
CTCGAAGTAT	1.04
CGTGCTTAAA	1.02
AACGAAAGGT	1.9
CTGAGCTAGC	0.986
ACAGAGGAAG	0.99
ATCCCAGTA	1.02
TCAAAGGCGT	1.02
TTTCCAGAAG	0.977
CGAATGGCGA	1
ATCAGGTCTT	1.01
AGAACACTC	1.03
GTAAGTTTAG	0.992
TGTGACAGCG	0.998
ACGGACGCGG	1.03

Sequence	switch fluorescence ratio
ATAACTGGCG	1.05
GTCGAGCTAG	1
CAGCAGACCG	1.03
ACAGAGGTGC	1.05
GCAGCCCGC	1.04
GCAATAAGAT	1.09
ACCTCCAGGG	1.17
CAGGACGTTC	0.997
TAGCAGACCG	1.02
TATCACTTG	0.976
TGAATGAAAA	1
GGAGTTAGCG	1.02
TCATCCTGTG	1.01
GCTTGAACCT	1.15
GGCTAGTG	1.03
TCCTCGCCTT	1.79
TCTTAGGTGT	1.04
TTTGTTTACG	1.02
TGCTGGTAA	0.944
CAGGTGGGAT	1.14
CACAGGACTT	1.09
TGTTGTCTTC	0.982
AGGAAGGCTT	1.08

Sequence	switch fluorescence ratio
GGGATGTGTC	1.01
TGCCGCCATA	1.23
CCCTGGGTAT	1
GATATAAACA	0.98
AAATATATAG	1
CTAATTACCT	1.27
GGATTCTAGA	0.987
TCGTGTGTGG	0.943
TTTCGAGGCA	1.35
GCTAGGCAAG	0.995
ATACTCTAT	1.06
TGATACCACG	1.14
GTGGTAGATG	0.96
ATCGATAAAA	0.991
CAGCACCCCG	1.16
CGTCTGAGAA	0.984
AAGCAATTTA	1.18
CATTCGACGG	0.997
GAATTTCGCT	1.04
GGCGGAAGAG	1.04
ACGTTTGTCT	1.02
GGATACCCCG	1.08
AACAAGATGT	1.02

Sequence	switch fluorescence ratio
CTGGTTTCCT	1.03
TCAGGTCGAA	1.04
AACAGCGCTT	0.959
ATGCAGGCAT	0.997
GAAAGAAACA	0.946
GACTAATAGA	1.02
TGCCTGCGGT	0.983
AACTAAGGAC	1.03
GTTTTGCCTA	0.955
ATAGATAGAC	0.981
TTATATACTC	1.13
TGCTTGTGAC	1.01
AACCTTGCGG	1.11
AACCAACGCA	1.62
ATGACCACGT	1.05
TTTAAAGATA	1.04
GGCACAGGCG	1.14
AAAGCCACTT	1.03
TAGTCTTATT	0.976
CGTACGTGT	1.14
GTTTCGTGCA	1.03
TAGGGATTTA	0.963
CAGTGAGAGT	1.02

Sequence	switch fluorescence ratio
CTTGCGTCGA	0.994
GGTGCGAGCT	0.988
CGATTCACCG	0.984
CCAGTACCT	1.23
CCAGACTTAT	0.978
CCAGAAGGCT	1.02
TTCAGAGCCT	1.03
CTATTTCGTG	0.979
CTCGAGTGA	1.03
GGCTTCCTT	1.17
AATTGCACCG	1.06
AGGACGCAGA	1.24
GCCCCAGTTG	2.52
GGTGAATCAC	1.04
AACTTATTAG	1.03
AACTCTAGG	0.994
CAGAAGCCTT	1.03
CTAGACTCTC	0.95
ATCTCCTTCG	1.49
GGTAGAAAAC	1.1
